Out of some 420,000 compounds screened, about 50,000 (12%) were called active. The inconclusive results got no clear call from the source; some entries with a clear call stand among them for comparison. Calls come from the whole dose curve; as a rule, active = well fitted inhibition curve with a large enough effect; inconclusive = small, poorly fitted or top-dose-only effect; inactive = flat fitted curve, though single readings scatter. Potencies of inconclusive entries are left out as doubtful fits.
Test: qHTS for Inhibitors of human tyrosyl-DNA phosphodiesterase 1 (TDP1): qHTS in cells in presence of CPT; note: nearly all actives have a fitted effect of over 55% in size
Conditions: chicken DT40 Tdp1-/-;hTDP1 cells + 20 nM CPT, ATP luminescence, 48 h; activity change, negative = growth inhibition: at 46.2 µM (top of the series)
Method in brief: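 Cell growth measured by CellTiter-Glo luminescence after a minimum 48 h, 37 C compound exposure with 20 nM CPT in Tdp1-knockout DT40 cells stably expressing hTDP1, seeded 400/well; qHTS titration format.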
% is set by controls: 0 for no effect and ±100 for the full control effect; potency is the fitted concentration of half-maximal effect; tags give direction and shape of the fitted curve.

| Structure (SMILES) | Potency | activity change, negative = growth inhibition |
| --- | --- | --- |
| CN(Cc1cccc2ncccc12)C(=O)c1cnn(-c2ncc3c(n2)-c2ccccc2CC3)c1C1CC1 | inconclusive [inhibitor, single point] | – |
| COc1ccc(N(C)S(=O)(=O)c2cccc(C(=O)NCC3CCCCC3)c2)cc1 | active: 23.1 µM | – |
| CCCCn1c(-c2csc(CC)c2)n[nH]c1=S | active: 20.6 µM | – |
| CCOC(=O)C1CCCN(C(=O)c2csc(-c3ccc4c(c3)CCO4)n2)C1 (configuration not stated) | – | inconclusive: -33.8% [inhibitor] |
| O=C1CC(c2c(F)cccc2Cl)C(n2cncn2)C(O)=C1C1NCCc2ccccc21 (configuration not stated) | – | inactive: 1.98% |
| O=C(CC(SCCO)c1ccc(F)cc1)c1ccco1 (configuration not stated) | active: 18.4 µM | – |
| O=C1NC(=O)/C(=C\c2ccc(OCc3cccc([N+](=O)[O-])c3)cc2)N1 | – | inactive: 3.67% |
| COc1ccccc1-c1nn2c(C3COc4ccccc4O3)nnc2s1 (configuration not stated) | inconclusive [inhibitor, single point] | – |
| CCNC(=S)Nc1cccc(S(=O)(=O)Nc2ccccc2OC)c1 | inconclusive [inhibitor, single point] | – |
| CCN(Cc1nc(-c2ccc(OC)cc2)oc1C)S(=O)(=O)c1ccc(C)cc1 | inconclusive [inhibitor, single point] | – |
| Cc1c(CCNC(=O)c2ccco2)sc2nc(-c3ccc(F)cc3)nn12 | active: 20.6 µM | – |
| CC(C)OP(=O)(CCP(=O)(OC(C)C)OC(C)C)OC(C)C | – | inactive: 18.3% |
| COc1ccccc1CNC(=O)C1=CCN(S(=O)(=O)c2ccc(C)cc2)CC1 | – | inactive: -23.2% |
| CCCCN(CC)C(=O)c1cc2c(=O)n3cccc(C)c3nc2n1C | inconclusive [inhibitor, single point] | – |
| CN(CC(=O)Nc1ccccc1C(F)(F)F)C(=O)c1cc(-c2cccs2)nn1-c1ccccc1 | – | inactive: 12.3% |
| COCC1CCCCN1C(=O)c1cc(COc2ccc(C)c(C)c2)on1 (configuration not stated) | active: 20.6 µM | – |
| O=S1(=O)N[C@H](Cc2ccccc2)COc2cccc(N3CCN(Cc4ccccc4F)CC3)c21 | inconclusive [inhibitor, single point] | – |
| COc1cc(-c2cc(OC)c3c(C)oc(C)c3c(=O)c2)ccc1O | inconclusive [inhibitor, single point] | – |
| COc1ccc([C@@H]2[C@@H]3C(=O)N(C(C)(C)C)C(=O)[C@@H]3[C@]3(Cc4ccccc4)C(=O)N(c4cccc(Br)c4)C(=O)N23)cc1 | – | inactive: 3.95% |
| COc1ccccc1C(=O)N(Cc1sccc1C)C1CCS(=O)(=O)C1 (configuration not stated) | – | inactive: -10.8% |
| CC(=O)c1ccc(NC(=O)Cn2c(-n3nc(C)cc3C)nc(C)c(C)c2=O)cc1 | inconclusive [inhibitor, single point] | – |
| CCN(CC)c1cc2c(cc1F)c(=O)c(S(=O)(=O)c1ccc(OC)cc1)cn2Cc1ccccc1 | inconclusive [inhibitor, single point] | – |
| COc1ccc(C(=O)N2CCC(C(=O)Nc3ccc(Cl)cc3)CC2)cc1 | active: 5.8 µM | – |
| CCOc1ccc(NC(=O)NNC(=O)C2CCC(C(C)(C)C)CC2)cc1 (configuration not stated) | inconclusive [inhibitor, single point] | – |

| Structure (SMILES) | Potency | activity change, negative = growth inhibition |
| --- | --- | --- |
| COc1cccc(O)c1CN1CCC(C(=O)Nc2ccc(-c3cccc(C)c3)cc2)CC1 | inconclusive [inhibitor, single point] | – |
| CCOC(=O)c1sc2nc(NC(=O)COc3ccccc3)sc2c1C | inconclusive [inhibitor, single point] | – |
| CCN(CC)C(=O)C1CCN(S(=O)(=O)c2c(C)noc2/C=C/c2cccc(C)c2)CC1 | inconclusive [inhibitor, single point] | – |
| CCOC(=O)N1CCC(NC(=O)c2ccc3c(c2)N=C(CC)c2ccccc2S3)CC1 | inconclusive [inhibitor, single point] | – |
| COc1cccc(CNc2nc3ccccc3n2CCN2CCCCC2)c1 | active: 12.6 µM | – |
| Cc1ccc(S(=O)(=O)NCC(=O)NC2CC2)cc1 | – | inactive: -4.13% |
| S=C(Nc1ccccc1)N1CCOCCOCCN(C(=S)Nc2ccccc2)CCOCCOCC1 | inconclusive [inhibitor, single point] | – |
| COc1ccc(CC(=O)n2[nH]c(=O)c3ccccc3c2=O)cc1OC | – | inactive: 0.361% |
| CC(OC(=O)c1cc(=O)[nH]c2ccccc12)c1ccccc1 (configuration not stated) | inconclusive [inhibitor, partial curve] | – |
| Cc1oncc1C(=O)Nc1ccc2ccccc2c1 | – | inactive: -17.4% |
| COc1cccc(CSc2nc3n(n2)C(CC(C)C)C(C(=O)Nc2ccccc2OC)=C(C)N3)c1 (configuration not stated) | active: 18.4 µM | – |
| COc1cc(OC)cc(C(=O)N[C@H](C(=O)OCC(=O)Nc2sccc2C#N)C(C)C)c1 | – | inactive: -2.42% |
| NC(=S)N/N=C/c1ccc2ccccc2c1 | active: 23.1 µM | – |
| CCN(CC)c1nc(NNC(=O)c2ccccc2)nc(N(CC)CC)n1 | inconclusive [inhibitor, partial curve] | – |
| CCOc1cc(C=O)cc(N=Nc2cccc([N+](=O)[O-])c2)c1O | – | inactive: 3.06% |
| CC(CS(=O)(=O)c1ccc2c(c1)NC(=O)CS2)C(=O)N1CCN(c2cccc(Cl)c2)CC1 (configuration not stated) | active: 18.4 µM | – |
| Oc1ccc(/C=N/NC(=S)N/N=C/c2ccc(O)cc2)cc1 | inconclusive [inhibitor, single point] | – |
| CCc1ccc(CN(C)CC(O)COc2cccc3ccccc23)cc1 (configuration not stated) | inconclusive [inhibitor, single point] | – |
| Cc1c(NC(=S)NC(=O)c2ccc(-c3ccc(Cl)cc3)o2)cccc1C(=O)O | – | inactive: 3.44% |
| Cc1nn(-c2ccccc2)c(Cl)c1C(=O)OCC(=O)NCCc1ccccc1 | inconclusive [inhibitor, single point] | – |
| CCOC(=O)C1CCN(C(=O)COc2cc(C)c(Br)cc2C)CC1 | inconclusive [inhibitor, single point] | – |
| CCN(c1cccc(C)c1)c1ncnc2nc[nH]c12 | – | inactive: -27.6% |
| COc1cc(CC(=O)OCC(=O)N(C)C2CCCCC2)cc(OC)c1OC | inconclusive [inhibitor, single point] | – |

— PubChem BioAssay AID686979 (National Center for Advancing Translational Sciences (NCATS), 2013)
